# According to the supplement of paper PMC8728848:
# The list shows a part of the results.
# B1: AFL (Aspergillus fumigatus), Q4WW81 (protein)
# chain: STPGAQQVLFRTGIAAVNLTNHLRVYFQDVYGSIRESLYEGSWANGTEKNVIGNAKLGSPVAATSKELKHIRVYTLTEGNTLQEFAYDSGTGWYNGGLGGAKFQVAPYSRIAAVFLAGTDALQLRIYAQKPDNTIQEYMWNGDGWKEGTNLGGALPGTGIGATSFRYTDYNGPSIRIWFQTDDLKLVQRAYDPHKGWYPDLVTIFDRAPPRTAIAATSFGAGNSSIYMRIYFVNSDNTIWQVCWDHGKGYHDKGTITPVIQGSEVAIISWGSFANNGPDLRLYFQNGTYISAVSEWVWNRAHGSQLGRSALPPA
# Legend:
# Assay in all cases: glycan array binding signal (z-score within array); higher = stronger binding
# Settings in all cases: glycan notation: IUPAC condensed, linker removed
# [1] = molecular target: Neu5Ac(a2-3)Gal(b1-4)GlcNAc(b1-3)Gal(b1-4)[Fuc(a1-3)]GlcNAc
# In short: (§1)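 Negative Z-scores can be read as non-binding. The Z-score is calculated within each array and then averaged across arrays of one protein sequence at different concentrations or buffers and across linkers. Arrays, 3228 in all, were curated from the Consortium for Functional Glycomics database and kept only where the protein sequence was available.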
# [2] = molecular target: Neu5Ac(a2-3)Gal(b1-4)GlcNAc(b1-3)GalNAc
# In short: as §1
# [3] = molecular target: Neu5Ac(a2-3)Gal(b1-4)GlcNAc(b1-6)[Gal(b1-3)]GalNAc
# In short: as §1
# [4] = molecular target: Neu5Ac(a2-3)Gal(b1-4)GlcNAc(b1-6)[Neu5Ac(a2-3)Gal(b1-3)]GalNAc
# In short: as §1
# [5] = molecular target: Neu5Ac(a2-3)Gal(b1-4)GlcNAc6S
# In short: as §1
# [6] = molecular target: Neu5Ac(a2-3)Gal(b1-4)[Fuc(a1-3)]GlcNAc
# In short: as §1
# [7] = molecular target: Neu5Ac(a2-3)Gal(b1-4)[Fuc(a1-3)]GlcNAc(b1-3)Gal
# In short: as §1
# [8] = molecular target: Neu5Ac(a2-3)Gal(b1-4)[Fuc(a1-3)]GlcNAc(b1-3)Gal(b1-4)GlcNAc
# In short: as §1
# [9] = molecular target: Neu5Ac(a2-3)Gal(b1-4)[Fuc(a1-3)]GlcNAc(b1-3)Gal(b1-4)[Fuc(a1-3)]GlcNAc(b1-3)Gal(b1-4)[Fuc(a1-3)]GlcNAc
# In short: as §1
# [10] = molecular target: Neu5Ac(a2-3)Gal(b1-4)[Fuc(a1-3)]GlcNAc(b1-3)GalNAc
# In short: as §1
# [11] = molecular target: Neu5Ac(a2-3)Gal(b1-4)[Fuc(a1-3)]GlcNAc(b1-6)[Gal(b1-3)]GalNAc
# In short: as §1
# [12] = molecular target: Neu5Ac(a2-3)Gal(b1-4)[Fuc(a1-3)]GlcNAc(b1-6)[Neu5Ac(a2-3)Gal(b1-3)]GalNAc
# In short: as §1
# [13] = molecular target: Neu5Ac(a2-3)Gal(b1-4)[Fuc(a1-3)]GlcNAc6S
# In short: as §1
# [14] = molecular target: Neu5Ac(a2-3)Gal6S(b1-4)GlcNAc
# In short: as §1
# [15] = molecular target: Neu5Ac(a2-3)Gal6S(b1-4)[Fuc(a1-3)]GlcNAc
# In short: as §1
# [16] = molecular target: Neu5Ac(a2-3)GalNAc
# In short: as §1
# [17] = molecular target: Neu5Ac(a2-3)GalNAc(b1-4)GlcNAc
# In short: as §1
# [18] = molecular target: Neu5Ac(a2-3)[GalNAc(b1-4)]Gal(b1-4)Glc
# In short: as §1
# [19] = molecular target: Neu5Ac(a2-3)[GalNAc(b1-4)]Gal(b1-4)GlcNAc
# In short: as §1
# [20] = molecular target: Neu5Ac(a2-3)[GalNAc(b1-4)]Gal(b1-4)GlcNAc(b1-3)GalNAc
# In short: as §1
# [21] = molecular target: Neu5Ac(a2-3)[Neu5Ac(a2-6)]GalNAc
# In short: as §1
# [22] = molecular target: Neu5Ac(a2-6)Gal
# In short: as §1
# [23] = molecular target: Neu5Ac(a2-6)Gal(b1-3)GlcNAc(b1-3)[Gal(b1-4)GlcNAc(b1-6)]Gal(b1-4)Glc
# In short: as §1
# [24] = molecular target: Neu5Ac(a2-6)Gal(b1-4)Glc
# In short: as §1
# [25] = molecular target: Neu5Ac(a2-6)Gal(b1-4)GlcNAc
# In short: as §1
# [26] = molecular target: Neu5Ac(a2-6)Gal(b1-4)GlcNAc(b1-2)Man(a1-3)Man(b1-4)GlcNAc(b1-4)GlcNAc
# In short: as §1
# [27] = molecular target: Neu5Ac(a2-6)Gal(b1-4)GlcNAc(b1-2)Man(a1-3)[Gal(b1-4)GlcNAc(b1-2)Man(a1-6)]Man(b1-4)GlcNAc(b1-4)GlcNAc
# In short: as §1
# [28] = molecular target: Neu5Ac(a2-6)Gal(b1-4)GlcNAc(b1-2)Man(a1-3)[GlcNAc(b1-2)Man(a1-6)]Man(b1-4)GlcNAc(b1-4)GlcNAc
# In short: as §1
# [29] = molecular target: Neu5Ac(a2-6)Gal(b1-4)GlcNAc(b1-2)Man(a1-3)[GlcNAc(b1-2)Man(b1-4)GlcNAc(b1-2)Man(a1-6)]Man(b1-4)GlcNAc(b1-4)GlcNAc
# In short: as §1
# [30] = molecular target: Neu5Ac(a2-6)Gal(b1-4)GlcNAc(b1-2)Man(a1-3)[Man(a1-6)]Man(b1-4)GlcNAc(b1-4)GlcNAc
# In short: as §1
# [31] = molecular target: Neu5Ac(a2-6)Gal(b1-4)GlcNAc(b1-2)Man(a1-3)[Neu5Ac(a2-6)Gal(b1-4)GlcNAc(b1-2)Man(a1-6)]Man(b1-4)GlcNAc(b1-4)GlcNAc
# In short: as §1
# [32] = molecular target: Neu5Ac(a2-6)Gal(b1-4)GlcNAc(b1-2)Man(a1-6)Man(b1-4)GlcNAc(b1-4)GlcNAc
# In short: as §1
# [33] = molecular target: Neu5Ac(a2-6)Gal(b1-4)GlcNAc(b1-2)Man(a1-6)[Gal(b1-4)GlcNAc(b1-2)Man(a1-3)]Man(b1-4)GlcNAc(b1-4)GlcNAc
# In short: as §1
binder,measurement,setting,value
B1,glycan array binding signal (z-score),[1],-0.39
same,glycan array binding signal (z-score),[2],-0.391
same,glycan array binding signal (z-score),[3],-0.391
same,glycan array binding signal (z-score),[4],-0.38
same,glycan array binding signal (z-score),[5],-0.385
same,glycan array binding signal (z-score),[6],0.383
same,glycan array binding signal (z-score),[7],1.03
same,glycan array binding signal (z-score),[8],0.961
same,glycan array binding signal (z-score),[9],1.83
same,glycan array binding signal (z-score),[10],-0.317
same,glycan array binding signal (z-score),[11],-0.35
same,glycan array binding signal (z-score),[12],-0.339
same,glycan array binding signal (z-score),[13],1.44
same,glycan array binding signal (z-score),[14],0.683
same,glycan array binding signal (z-score),[15],0.939
same,glycan array binding signal (z-score),[16],-0.384
same,glycan array binding signal (z-score),[17],-0.383
same,glycan array binding signal (z-score),[18],-0.385
same,glycan array binding signal (z-score),[19],-0.385
same,glycan array binding signal (z-score),[20],-0.385
same,glycan array binding signal (z-score),[21],-0.389
same,glycan array binding signal (z-score),[22],-0.382
same,glycan array binding signal (z-score),[23],-0.383
same,glycan array binding signal (z-score),[24],-0.385
same,glycan array binding signal (z-score),[25],-0.381
same,glycan array binding signal (z-score),[26],-0.391
same,glycan array binding signal (z-score),[27],-0.381
same,glycan array binding signal (z-score),[28],-0.384
same,glycan array binding signal (z-score),[29],-0.391
same,glycan array binding signal (z-score),[30],-0.392
same,glycan array binding signal (z-score),[31],-0.367
same,glycan array binding signal (z-score),[32],-0.377
same,glycan array binding signal (z-score),[33],-0.383
